Some of the results follow. Sequences were assembled here from the parent chain. Inactive controls read about 0.05.
B1: TEV protease; numbered along this chain (parent)
chain: MGESLFKGPRDYNPISSSICHLTNESDGHTTSLYGIGFGPFIITNKHLFRRNNGTLVVQSLHGVFKVKDTTTLQQHLVDGRDMIIIRMPKDFPPFPQKLKFREPQREERICLVTTNFQTKSMSSMVSDTSCTFPSGDGIFWKHWIQTKDGQCGSPLVSTRDGFIVGIHSASNFTNTNNYFTSVPKNFMELLTNQEAQQWVSGWRLNADSVLWGGHKVFMVKPEEPFQPVKEATQL

Variants of: B1
Experiment: raw area under fraction-flipped curve 0-4 h after induction (AUC4h, not background-subtracted), DNA-recorder readout of cleavage of the substrate (dimensionless); higher = more cleavage of the substrate by the protease variant
Details: temperature: 34 °C; time window: 0-4 h after rhamnose induction
Experimental: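 In vivo DNA recorder in E. coli TOP10(DE3) ΔrhaA at 34 °C. Each TEVp single-site mutant (parent TEVp 0) is paired with a single-site variant of the 7-mer TEVs (canonical ENLYFQ|S). The substrate sits between flexible linkers in a Bxb1-sfGFP-TEVs-SsrA fusion, so cleavage stabilises Bxb1 and speeds flipping of a recombination array, read by NGS. The value is the raw area under the fraction-flipped curve over 0-4 h after rhamnose induction (AUC4h), with ≥20 reads per time point. It is not background-subtracted; inactive controls average about 0.047.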
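Note: Bxb1 expression induced with 0.2% (w/v) L-rhamnose at OD600 near 0.5, cultures sampled hourly, flipped fraction per protease–substrate barcode pair counted by paired-end Illumina sequencing.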

Row | Variant | area with substrate EALYFQS | area with substrate EDLYFQS | area with substrate EELYFQS | area with substrate EILYFQS | area with substrate ELLYFQS | area with substrate EMLYFQS | area with substrate EPLYFQS | area with substrate EQLYFQS | area with substrate ERLYFQS | area with substrate ESLYFQS
1 | MGESLFVGPRDYNPISSSICHLTNESDGHTTSLYGIGFGPFIITNKHLFRRNNGTLVVQSLHGVFKVKDTTTLQQHLVDGRDMIIIRMPKDFPPFPQKLKFREPQREERICLVTTNFQTKSMSSMVSDTSCTFPSGDGIFWKHWIQTKDGQCGSPLVSTRDGFIVGIHSASNFTNTNNYFTSVPKNFMELLTNQEAQQWVSGWRLNADSVLWGGHKVFMVKPEEPFQPVKEATQL [K7V] | 0.0798 | 0.0578 | 0.0698 | 0.0607 | 0.0765 | 0.0824 | 0.0684 | 0.0558 | 0.0809 | 0.0726
2 | MGESLFWGPRDYNPISSSICHLTNESDGHTTSLYGIGFGPFIITNKHLFRRNNGTLVVQSLHGVFKVKDTTTLQQHLVDGRDMIIIRMPKDFPPFPQKLKFREPQREERICLVTTNFQTKSMSSMVSDTSCTFPSGDGIFWKHWIQTKDGQCGSPLVSTRDGFIVGIHSASNFTNTNNYFTSVPKNFMELLTNQEAQQWVSGWRLNADSVLWGGHKVFMVKPEEPFQPVKEATQL [K7W] | 0.112 |  |  |  |  |  | 0.137 |  | 0.0837 | 
3 | MGASLFKGPRDYNPISSSICHLTNESDGHTTSLYGIGFGPFIITNKHLFRRNNGTLVVQSLHGVFKVKDTTTLQQHLVDGRDMIIIRMPKDFPPFPQKLKFREPQREERICLVTTNFQTKSMSSMVSDTSCTFPSGDGIFWKHWIQTKDGQCGSPLVSTRDGFIVGIHSASNFTNTNNYFTSVPKNFMELLTNQEAQQWVSGWRLNADSVLWGGHKVFMVKPEEPFQPVKEATQL [E3A] | 0.118 |  | 0.155 |  | 0.0786 | 0.118 | 0.126 | 0.172 | 0.0862 | 
4 | MGESLTKGPRDYNPISSSICHLTNESDGHTTSLYGIGFGPFIITNKHLFRRNNGTLVVQSLHGVFKVKDTTTLQQHLVDGRDMIIIRMPKDFPPFPQKLKFREPQREERICLVTTNFQTKSMSSMVSDTSCTFPSGDGIFWKHWIQTKDGQCGSPLVSTRDGFIVGIHSASNFTNTNNYFTSVPKNFMELLTNQEAQQWVSGWRLNADSVLWGGHKVFMVKPEEPFQPVKEATQL [F6T] | 0.129 |  |  |  |  |  |  | 0.0047 |  | 0.14
5 | MGESLFKGNRDYNPISSSICHLTNESDGHTTSLYGIGFGPFIITNKHLFRRNNGTLVVQSLHGVFKVKDTTTLQQHLVDGRDMIIIRMPKDFPPFPQKLKFREPQREERICLVTTNFQTKSMSSMVSDTSCTFPSGDGIFWKHWIQTKDGQCGSPLVSTRDGFIVGIHSASNFTNTNNYFTSVPKNFMELLTNQEAQQWVSGWRLNADSVLWGGHKVFMVKPEEPFQPVKEATQL [P9N] | 0.112 | 0.127 |  |  | 0.114 |  |  |  |  | 0.0972
6 | MGESLFKGPRDRNPISSSICHLTNESDGHTTSLYGIGFGPFIITNKHLFRRNNGTLVVQSLHGVFKVKDTTTLQQHLVDGRDMIIIRMPKDFPPFPQKLKFREPQREERICLVTTNFQTKSMSSMVSDTSCTFPSGDGIFWKHWIQTKDGQCGSPLVSTRDGFIVGIHSASNFTNTNNYFTSVPKNFMELLTNQEAQQWVSGWRLNADSVLWGGHKVFMVKPEEPFQPVKEATQL [Y12R] | 0.122 | 0.134 | 0.12 | 0.103 |  |  | 0.0946 |  | 0.0837 | 0.12
7 | MGESLFKGPRTYNPISSSICHLTNESDGHTTSLYGIGFGPFIITNKHLFRRNNGTLVVQSLHGVFKVKDTTTLQQHLVDGRDMIIIRMPKDFPPFPQKLKFREPQREERICLVTTNFQTKSMSSMVSDTSCTFPSGDGIFWKHWIQTKDGQCGSPLVSTRDGFIVGIHSASNFTNTNNYFTSVPKNFMELLTNQEAQQWVSGWRLNADSVLWGGHKVFMVKPEEPFQPVKEATQL [D11T] | 0.117 | 0.134 | 0.112 | 0.0843 | 0.0956 |  |  | 0.195 |  | 
8 | MGEALFKGPRDYNPISSSICHLTNESDGHTTSLYGIGFGPFIITNKHLFRRNNGTLVVQSLHGVFKVKDTTTLQQHLVDGRDMIIIRMPKDFPPFPQKLKFREPQREERICLVTTNFQTKSMSSMVSDTSCTFPSGDGIFWKHWIQTKDGQCGSPLVSTRDGFIVGIHSASNFTNTNNYFTSVPKNFMELLTNQEAQQWVSGWRLNADSVLWGGHKVFMVKPEEPFQPVKEATQL [S4A] | 0.107 | 0.119 |  |  |  |  |  |  |  | 0.1
9 | MIESLFKGPRDYNPISSSICHLTNESDGHTTSLYGIGFGPFIITNKHLFRRNNGTLVVQSLHGVFKVKDTTTLQQHLVDGRDMIIIRMPKDFPPFPQKLKFREPQREERICLVTTNFQTKSMSSMVSDTSCTFPSGDGIFWKHWIQTKDGQCGSPLVSTRDGFIVGIHSASNFTNTNNYFTSVPKNFMELLTNQEAQQWVSGWRLNADSVLWGGHKVFMVKPEEPFQPVKEATQL [G2I] | 0.164 |  | 0.224 |  |  |  |  |  |  | 0.149
10 | MFESLFKGPRDYNPISSSICHLTNESDGHTTSLYGIGFGPFIITNKHLFRRNNGTLVVQSLHGVFKVKDTTTLQQHLVDGRDMIIIRMPKDFPPFPQKLKFREPQREERICLVTTNFQTKSMSSMVSDTSCTFPSGDGIFWKHWIQTKDGQCGSPLVSTRDGFIVGIHSASNFTNTNNYFTSVPKNFMELLTNQEAQQWVSGWRLNADSVLWGGHKVFMVKPEEPFQPVKEATQL [G2F] | 0.129 | 0.145 |  | 0.131 | 0.129 | 0.145 |  |  | 0.179 | 0.159

Same assay, conditions: temperature: 34 °C; time window: 0-4 h after rhamnose induction

Row | Variant | area with substrate ETLYFQS | area with substrate EVLYFQS | area with substrate EWLYFQS | area with substrate EYLYFQS | area with substrate EHLYFQS | area with substrate EKLYFQS | area with substrate EFLYFQS | area with substrate EGLYFQS
11 | MGESLFVGPRDYNPISSSICHLTNESDGHTTSLYGIGFGPFIITNKHLFRRNNGTLVVQSLHGVFKVKDTTTLQQHLVDGRDMIIIRMPKDFPPFPQKLKFREPQREERICLVTTNFQTKSMSSMVSDTSCTFPSGDGIFWKHWIQTKDGQCGSPLVSTRDGFIVGIHSASNFTNTNNYFTSVPKNFMELLTNQEAQQWVSGWRLNADSVLWGGHKVFMVKPEEPFQPVKEATQL [K7V] | 0.0755 | 0.0526 |  |  |  |  |  | 
12 | MGESLFWGPRDYNPISSSICHLTNESDGHTTSLYGIGFGPFIITNKHLFRRNNGTLVVQSLHGVFKVKDTTTLQQHLVDGRDMIIIRMPKDFPPFPQKLKFREPQREERICLVTTNFQTKSMSSMVSDTSCTFPSGDGIFWKHWIQTKDGQCGSPLVSTRDGFIVGIHSASNFTNTNNYFTSVPKNFMELLTNQEAQQWVSGWRLNADSVLWGGHKVFMVKPEEPFQPVKEATQL [K7W] | 0.114 |  | 0.0787 | 0.0802 |  |  |  | 
13 | MGASLFKGPRDYNPISSSICHLTNESDGHTTSLYGIGFGPFIITNKHLFRRNNGTLVVQSLHGVFKVKDTTTLQQHLVDGRDMIIIRMPKDFPPFPQKLKFREPQREERICLVTTNFQTKSMSSMVSDTSCTFPSGDGIFWKHWIQTKDGQCGSPLVSTRDGFIVGIHSASNFTNTNNYFTSVPKNFMELLTNQEAQQWVSGWRLNADSVLWGGHKVFMVKPEEPFQPVKEATQL [E3A] | 0.114 | 0.102 |  |  | 0.0935 | 0.111 |  | 
14 | MGESLFKGNRDYNPISSSICHLTNESDGHTTSLYGIGFGPFIITNKHLFRRNNGTLVVQSLHGVFKVKDTTTLQQHLVDGRDMIIIRMPKDFPPFPQKLKFREPQREERICLVTTNFQTKSMSSMVSDTSCTFPSGDGIFWKHWIQTKDGQCGSPLVSTRDGFIVGIHSASNFTNTNNYFTSVPKNFMELLTNQEAQQWVSGWRLNADSVLWGGHKVFMVKPEEPFQPVKEATQL [P9N] |  |  | 0.104 |  |  | 0.0994 | 0.0939 | 0.138
15 | MGESLFKGPRDRNPISSSICHLTNESDGHTTSLYGIGFGPFIITNKHLFRRNNGTLVVQSLHGVFKVKDTTTLQQHLVDGRDMIIIRMPKDFPPFPQKLKFREPQREERICLVTTNFQTKSMSSMVSDTSCTFPSGDGIFWKHWIQTKDGQCGSPLVSTRDGFIVGIHSASNFTNTNNYFTSVPKNFMELLTNQEAQQWVSGWRLNADSVLWGGHKVFMVKPEEPFQPVKEATQL [Y12R] |  |  | 0.0883 | 0.124 |  | 0.129 |  | 0.123
16 | MGESLFKGPRTYNPISSSICHLTNESDGHTTSLYGIGFGPFIITNKHLFRRNNGTLVVQSLHGVFKVKDTTTLQQHLVDGRDMIIIRMPKDFPPFPQKLKFREPQREERICLVTTNFQTKSMSSMVSDTSCTFPSGDGIFWKHWIQTKDGQCGSPLVSTRDGFIVGIHSASNFTNTNNYFTSVPKNFMELLTNQEAQQWVSGWRLNADSVLWGGHKVFMVKPEEPFQPVKEATQL [D11T] |  |  |  |  |  |  |  | 0.113
17 | MGEALFKGPRDYNPISSSICHLTNESDGHTTSLYGIGFGPFIITNKHLFRRNNGTLVVQSLHGVFKVKDTTTLQQHLVDGRDMIIIRMPKDFPPFPQKLKFREPQREERICLVTTNFQTKSMSSMVSDTSCTFPSGDGIFWKHWIQTKDGQCGSPLVSTRDGFIVGIHSASNFTNTNNYFTSVPKNFMELLTNQEAQQWVSGWRLNADSVLWGGHKVFMVKPEEPFQPVKEATQL [S4A] | 0.113 |  |  |  | 0.123 |  |  | 0.0979
18 | MIESLFKGPRDYNPISSSICHLTNESDGHTTSLYGIGFGPFIITNKHLFRRNNGTLVVQSLHGVFKVKDTTTLQQHLVDGRDMIIIRMPKDFPPFPQKLKFREPQREERICLVTTNFQTKSMSSMVSDTSCTFPSGDGIFWKHWIQTKDGQCGSPLVSTRDGFIVGIHSASNFTNTNNYFTSVPKNFMELLTNQEAQQWVSGWRLNADSVLWGGHKVFMVKPEEPFQPVKEATQL [G2I] |  | 0.153 | 0.133 | 0.165 | 0.158 |  |  | 0.141
19 | MFESLFKGPRDYNPISSSICHLTNESDGHTTSLYGIGFGPFIITNKHLFRRNNGTLVVQSLHGVFKVKDTTTLQQHLVDGRDMIIIRMPKDFPPFPQKLKFREPQREERICLVTTNFQTKSMSSMVSDTSCTFPSGDGIFWKHWIQTKDGQCGSPLVSTRDGFIVGIHSASNFTNTNNYFTSVPKNFMELLTNQEAQQWVSGWRLNADSVLWGGHKVFMVKPEEPFQPVKEATQL [G2F] | 0.198 | 0.133 |  |  | 0.149 |  | 0.152 | 

Source: the supplement of paper PMC12217912
